Laboratory results published in the supplement of paper PMC7826260.
The other results are listed elsewhere or left out. The data describe in vitro nicking of single-stranded DNA by Rep domains (3 µM enzyme, 1 h, 37 °C); shown is the middle of each 90-letter strand. Uncut reads are compared with the no-enzyme pool on a log2 scale; more negative means more cut, near 0 not cut, and no call is made. Reads are scaled to the total; where an enzyme cuts many sequences, the uncut ones exceed 0.

Tests used:
Assay in all cases: uncleaved DNA left, log2 of reads against the no-enzyme library (log2 ratio); higher = less cleavage (more negative = more Rep cleavage of the k-mer); sequences stand for … in CTCGTCCG…ACCGGAGA
[1] = test system: T1, Rep nickase domain of Muscovy duck circovirus
T1 sequence (protein, residues 1-111, tag omitted): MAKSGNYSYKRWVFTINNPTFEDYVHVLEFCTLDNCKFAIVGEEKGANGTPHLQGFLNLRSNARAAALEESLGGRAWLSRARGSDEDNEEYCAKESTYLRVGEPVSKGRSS
Description: (§1)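 A pool of 90-nt single-stranded DNAs with seven random bases just before the constant AC of the nick site (name = the seven bases) was cut by 3 µM recombinant His6-SUMO-tagged Rep nickase domain (300 nM DNA, 50 mM HEPES pH 8.0, 50 mM NaCl, 1 mM MnCl2, 1 h, 37 °C, three replicates). Uncut DNA was amplified and sequenced.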

[2] = test system: T2, Rep nickase domain of banana bunchy top virus
T2 sequence (protein, residues 1-94, tag omitted): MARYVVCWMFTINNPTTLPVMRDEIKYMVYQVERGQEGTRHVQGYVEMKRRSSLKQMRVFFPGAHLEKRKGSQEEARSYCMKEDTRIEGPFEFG
Description: as §1

[3] = test system: T3, Rep nickase domain of cabbage leaf curl virus
T3 sequence (protein, residues 1-116, tag omitted): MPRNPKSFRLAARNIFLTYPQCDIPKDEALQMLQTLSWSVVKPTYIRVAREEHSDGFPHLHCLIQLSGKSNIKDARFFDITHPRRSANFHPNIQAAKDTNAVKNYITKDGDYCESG
Description: as §1

[4] = test system: T4, Rep nickase domain of chickpea chlorotic dwarf virus
T4 sequence (protein, residues 1-124, tag omitted): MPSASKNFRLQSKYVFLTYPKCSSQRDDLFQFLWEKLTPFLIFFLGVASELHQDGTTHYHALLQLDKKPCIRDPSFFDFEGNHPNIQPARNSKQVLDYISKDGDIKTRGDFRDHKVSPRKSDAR
Description: as §1

[5] = test system: T5, Rep nickase domain of faba bean necrotic yellows virus
T5 sequence (protein, residues 1-98, tag omitted): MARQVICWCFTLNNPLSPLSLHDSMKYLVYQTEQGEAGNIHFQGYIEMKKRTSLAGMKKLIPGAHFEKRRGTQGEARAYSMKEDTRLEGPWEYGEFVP
Description: as §1

[6] = test system: T6, Rep nickase domain of maize striate mosaic virus
T6 sequence (protein, residues 1-117, tag omitted): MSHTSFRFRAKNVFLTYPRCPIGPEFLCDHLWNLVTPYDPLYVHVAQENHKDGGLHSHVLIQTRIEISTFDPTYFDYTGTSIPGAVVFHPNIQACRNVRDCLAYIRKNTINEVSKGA
Description: as §1

[7] = test system: T7, Rep nickase domain of porcine circovirus 2
T7 sequence (protein, residues 2-116, tag omitted): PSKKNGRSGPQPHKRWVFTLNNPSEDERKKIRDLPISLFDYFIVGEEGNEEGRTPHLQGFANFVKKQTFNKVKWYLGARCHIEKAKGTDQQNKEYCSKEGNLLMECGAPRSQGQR
Description: as §1

[8] = test system: T8, Rep nickase domain of tomato golden mosaic virus
T8 sequence (protein, residues 1-124, tag omitted): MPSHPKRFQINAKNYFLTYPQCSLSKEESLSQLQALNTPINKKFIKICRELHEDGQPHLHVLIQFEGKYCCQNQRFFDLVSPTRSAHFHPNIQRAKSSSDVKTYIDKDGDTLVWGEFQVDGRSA
Description: as §1

[9] = test system: T9, Rep nickase domain of tomato yellow leaf curl virus
T9 sequence (protein, residues 1-136, tag omitted): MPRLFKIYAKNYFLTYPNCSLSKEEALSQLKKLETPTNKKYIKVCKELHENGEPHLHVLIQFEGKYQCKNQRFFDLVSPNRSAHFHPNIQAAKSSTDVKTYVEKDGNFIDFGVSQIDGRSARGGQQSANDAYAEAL
Description: as §1

[10] = test system: T10, Rep nickase domain of wheat dwarf virus
T10 sequence (protein, residues 1-137, tag omitted): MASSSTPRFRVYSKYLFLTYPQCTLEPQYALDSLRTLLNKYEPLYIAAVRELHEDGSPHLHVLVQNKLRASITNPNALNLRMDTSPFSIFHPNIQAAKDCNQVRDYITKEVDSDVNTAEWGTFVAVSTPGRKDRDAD
Description: as §1

Sequence | uncleaved DNA left (log2) [1] | uncleaved DNA left (log2) [2] | uncleaved DNA left (log2) [3] | uncleaved DNA left (log2) [4] | uncleaved DNA left (log2) [5] | uncleaved DNA left (log2) [6] | uncleaved DNA left (log2) [7] | uncleaved DNA left (log2) [8] | uncleaved DNA left (log2) [9] | uncleaved DNA left (log2) [10]
ATGGTTT | -0.0046 | 0.011 | 0.321 | 1.14 | -0.0693 | 1.54 | -0.106 | 0.112 | -0.0543 | -0.00822
ATATTGT | -0.431 | -0.139 | -0.659 | -1.12 | -0.0259 | -1.4 | -0.667 | -0.128 | -0.104 | -0.259
GTTCAAC | -0.0593 | -0.0796 | 0.221 | 0.705 | -0.0737 | 1.58 | 0.0114 | 0.0444 | 0.00417 | 0.0374
AGACGTA | 0.0279 | 0.189 | 0.259 | -0.867 | 0.083 | 1 | -0.0157 | 0.0995 | -0.00532 | 0.0222
AGCGCTG | 0.0167 | 0.0513 | 0.0729 | 0.575 | -0.00973 | 1.77 | -0.0259 | 0.13 | -0.0335 | -0.0138
TAGACCC | 0.0795 | 0.00948 | 0.607 | 1.42 | 0.0143 | 1.88 | 0.0346 | -0.0797 | 0.169 | 0.115
CGTAGGT | 0.0987 | 0.0158 | 0.414 | 0.74 | 0.0246 | 0.902 | 0.0547 | 0.0124 | 0.0244 | 0.0393
CCATGCT | -0.631 | -0.00889 | -0.8 | -1.21 | -0.133 | -0.972 | -0.74 | -0.118 | -0.138 | -0.0686
CCTTACG | -0.134 | 0.0402 | -0.898 | -0.209 | 0.0232 | -0.923 | 0.173 | -0.215 | -0.0613 | -0.225
AAAAATA | -0.0409 | 0.00463 | -0.442 | -2.74 | -0.0181 | -0.744 | -0.147 | 0.131 | -0.0847 | -0.0377
ACACTGG | -0.00356 | -0.0487 | -0.74 | -0.554 | -0.0768 | -1.12 | 0.0759 | -0.088 | -0.0341 | -0.18
AGCATCG | 0.0838 | 0.0803 | -0.535 | -0.474 | 0.0378 | -1.06 | 0.261 | 0.0819 | 0.058 | 0.00585
CGGTCCC | 0.103 | 0.0896 | 0.313 | 0.591 | 0.0121 | 0.729 | 0.0826 | -0.0673 | 0.147 | 0.113
AGATCTA | -0.0276 | -0.0322 | 0.188 | -0.0461 | -0.0585 | 0.543 | -0.163 | 0.0113 | -0.0711 | 0.132
GGTGGCA | 0.101 | 0.0383 | 0.824 | 1.72 | 0.0144 | 2.2 | 0.227 | 0.114 | -0.00929 | 0.102
GGTATCC | 0.014 | 0.061 | 0.478 | 1.33 | -0.0635 | 1.69 | 0.0988 | 0.0665 | 0.0897 | 0.134
AGTCGTA | -0.0616 | -0.17 | -0.22 | -0.714 | -0.199 | -0.664 | -2.27 | -0.059 | -0.0597 | -0.13
TTCAGAA | 0.151 | 0.105 | 0.386 | 0.131 | 0.149 | -0.013 | 0.174 | 0.198 | 0.0518 | 0.127
AGAGTGT | 0.0466 | -0.087 | 0.0674 | 0.338 | 0.0486 | 0.281 | 0.0608 | 0.221 | 0.0142 | 0.029
TCTAAAT | 0.07 | 0.1 | 0.0813 | -0.507 | 0.0753 | -0.287 | -0.18 | 0.0978 | -0.0372 | -0.0568
ACGTGGG | -0.0898 | -0.107 | -0.544 | -0.502 | 0.00766 | -0.865 | 0.148 | 0.0428 | -0.0574 | -0.0345
GAGGCTT | -0.115 | 0.0294 | 0.674 | 1.26 | -0.115 | 2.03 | -1.91 | 0.0299 | 0.0441 | 0.109
GAGAGCG | -0.018 | 0.0421 | -0.584 | -0.387 | 0.0647 | -0.995 | 0.221 | 0.0326 | 0.0733 | -0.0343
CGGACCC | 0.0206 | -0.0282 | 0.477 | 1.11 | 0.0648 | 1.29 | 0.12 | 0.104 | -0.0119 | 0.191
AAGATGC | 0.0469 | 0.06 | -0.164 | -0.1 | 0.144 | -0.687 | 0.167 | 0.0654 | -0.00398 | 0.0172
TGTACTG | 0.0182 | 0.0393 | -0.0225 | 0.621 | 0.00766 | 1.53 | 0.062 | -0.0583 | 0.0376 | 0.0679
AGGGGGT | 0.0935 | 0.128 | 0.332 | 1.45 | -0.0391 | 1.7 | 0.177 | 0.136 | -0.0846 | 0.0868
TCAGATA | 0.0876 | -9.52e-05 | 0.0432 | -0.692 | 0.0887 | 0.168 | 0.0867 | 0.15 | 0.0113 | 0.0562
GCTGTCA | 0.00766 | -0.0497 | -0.0626 | 0.254 | -0.101 | 0.584 | -0.184 | -0.0618 | 0.0155 | -0.00163
TTCTGGC | 0.0732 | -0.184 | -0.15 | -0.373 | -0.104 | -0.879 | 0.0259 | -0.0902 | -0.0852 | -0.188
